In all, about 33,000 sequences were measured (“E-score (-0.5 to 0.5)”: median about -0.012, highest 2% from about 0.29 on). Some of the results follow.
Molecular target: T1, Ybr033w (UniProt P38073)
T1 sequence: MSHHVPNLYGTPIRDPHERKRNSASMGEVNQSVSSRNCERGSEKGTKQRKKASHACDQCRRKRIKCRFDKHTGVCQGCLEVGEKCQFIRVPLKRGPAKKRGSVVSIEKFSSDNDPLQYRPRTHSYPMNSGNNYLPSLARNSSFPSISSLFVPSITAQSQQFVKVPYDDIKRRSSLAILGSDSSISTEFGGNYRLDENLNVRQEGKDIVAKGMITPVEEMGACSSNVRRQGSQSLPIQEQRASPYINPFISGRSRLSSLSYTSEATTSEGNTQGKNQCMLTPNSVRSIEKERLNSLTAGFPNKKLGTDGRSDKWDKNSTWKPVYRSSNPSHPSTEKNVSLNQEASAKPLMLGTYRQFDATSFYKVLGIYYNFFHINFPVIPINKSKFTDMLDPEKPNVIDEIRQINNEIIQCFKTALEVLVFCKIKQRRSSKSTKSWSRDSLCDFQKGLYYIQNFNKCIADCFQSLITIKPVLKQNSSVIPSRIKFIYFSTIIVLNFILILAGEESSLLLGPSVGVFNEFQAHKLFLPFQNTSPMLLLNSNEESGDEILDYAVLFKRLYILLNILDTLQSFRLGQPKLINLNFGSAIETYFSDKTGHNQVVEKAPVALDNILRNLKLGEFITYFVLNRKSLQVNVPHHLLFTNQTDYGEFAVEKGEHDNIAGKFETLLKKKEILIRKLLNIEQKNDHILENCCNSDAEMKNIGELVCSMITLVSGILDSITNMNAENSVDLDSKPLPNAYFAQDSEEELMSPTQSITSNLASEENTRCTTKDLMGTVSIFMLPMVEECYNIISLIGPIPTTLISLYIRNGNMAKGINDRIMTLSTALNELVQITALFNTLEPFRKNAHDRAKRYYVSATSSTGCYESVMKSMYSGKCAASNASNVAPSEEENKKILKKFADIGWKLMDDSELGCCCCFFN
Assay: PBM E-score (8-mer binding enrichment) (E-score (-0.5 to 0.5)); higher = stronger / more preferred TF binding; most listed sequences are background and not binding sites
Settings: protein concentration: 200 nM; construct: GST-full length
Procedure, shortened: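 Yeast transcription factors, full-length or as DNA-binding domains, were expressed with a GST tag using PURExpress in vitro transcription/translation. At about 100-200 nM they were applied to universal all-10-mer Agilent arrays, double-stranded by primer extension on fresh or once-stripped slides. Fluorescent anti-GST detected bound protein, and masliner normalised the scans. E-scores for ungapped eight-base words, pooled with reverse complements, came from the Universal PBM Analysis Suite.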

Sequence	PBM E-score
AACTAAAT	0.101
ACAGGCCC	-0.338
TACCAAAA	0.145
CATTCTTC	0.0876
GTAACGAC	-0.16
ATGGGCTG	-0.187
AGATACGA	0.234
CACTAGCA	-0.0077
CAGGGACG	-0.148
CGAATGGC	0.0852
TCGGCCAA	-0.136
TCGTGCCA	-0.139
TAGCTCCA	-0.0856
CGAACCGA	0.0979
AGTGGCGG	0.0136
CCCACTGC	0.0387
GGCCACGA	-0.2
CAGCCCAA	-0.102
AGCGTGGG	-0.357
AGATTATG	0.148
AATTAGCC	-0.00997
CACATGCG	-0.17
CCATCCCC	-0.192
ACATCATA	0.187
AGAAAAAC	0.0818

Sequence	PBM E-score
TCGTCACA	-0.0423
CTCTTAGA	0.0706
ATTACGAG	0.149
CCGGTCCC	-0.281
CAATGGAA	0.203
ATAAATAA	0.38
GTGAGCCA	0.0735
ATAAGTAA	0.225
CCTCTTCA	-0.218
CTTTACTA	0.217
CCGTGAAA	0.146
CGGGATCC	0.00926
ACGGTTTG	-0.0111
GCCCCTGA	-0.264
AACTTGCA	0.0768
CTCGCGAA	-0.0875
AAAGGAAG	0.0309
GCCTGATA	-0.0639
GTACCTCA	-0.0236
CTAGGCAC	-0.0738
AACTCGCT	0.0819
CAAATTTC	0.225
TACGATAA	0.151
AGCTCGCA	-0.134
GACCACTC	-0.232

Sequence	PBM E-score
AGCATCAT	0.014
ACATACCG	-0.198
CGGATAGC	-0.0896
TCGCCCGA	-0.162
GATTTGAA	0.177
CCGTCAAA	-0.0104
GAGAGCCC	-0.387
ACAGTCTG	-0.272
GAGCCAGA	0.00187
GTGGAGGA	0.0521
CTGACTGC	-0.188
GGAAATTA	0.264
AGCTGGTA	-0.142
CTCAGTCA	-0.111
GACACGCC	-0.0989
ACATCGAT	0.122
ATTAGAGC	0.16
TACTCAGA	0.0332
ACTAAGGA	-0.0971
ATTTCCTA	0.101
TCAGCAAA	0.126
ATCCGTCA	0.105
AAGTTTCT	0.133
ACGGGCGG	-0.259
GAGAGCGC	-0.203

Sequence	PBM E-score
CGCGACCG	-0.117
ACGCCTAT	-0.107
TCGACTCA	0.168
CAAGCCGG	0.0828
AAGCTTTC	0.188
CTAGCAGC	-0.0711
CACTGTTC	-0.00287
TAAGTTCA	0.0804
GCGAACGC	-0.131
CAGCTTGC	-0.186
GCAGTCTA	-0.0682
AGTTCGGG	0.0706
GCATCGTA	0.0304
CGCAGTAA	0.0633
GAAATTAC	0.255
GCAGCTAA	0.0624
ATCTGCAG	-0.0436
GGTTAGTA	0.125
AAAAGTAC	0.103
ACCCCTTG	-0.326
ACTAGTTC	-0.0183
CCAGATTA	0.18
ATGTTACA	0.225
ATATACAG	0.277
ATAGATGA	0.0723

Sequence	PBM E-score
ATCCTTAC	0.196
CAGAGCCA	0.00866
AGGCTTTA	-0.0897
CGGGCAAA	-0.102
ACACGGAA	0.121
AACCTACG	0.0746
CAATATGG	0.0471
CTCGACAA	0.022
GTTTTGGA	0.196
ACCCGTGG	-0.317
ATCGATAA	0.12
GTTGTTAA	0.267
GCTATAAA	0.138
CTTAGCAC	0.0352
TATGGAGA	-0.0459
CCTGAATC	0.108
AGGTACCT	-0.31
GAATGATC	0.188
CGTTCGTA	0.122
ACGTACCG	0.0138
CGTAAGAG	-0.141
ACCATACA	0.00754
GCTAAGAA	-0.0778
AGCATCGG	-0.0752
CGTTAGCA	0.0776

Sequence	PBM E-score
GGTTTCCA	-0.241
GACGAAAA	0.25
CTTAGCCC	-0.207
AGGATCTG	-0.161
AGCCGGCT	0.0153
ACTGCTAC	0.0898
AGTTAGTA	0.137
AAGTTTAT	0.333
AGGTGCAC	0.00149
GCATAGCA	0.0192
GACCTTGC	-0.24
AGATCATA	0.183
CCGCAAGA	0.0615
ACAGAAAA	0.144
AAACTCCT	0.0225
AATATAGA	0.266
CACCCATG	-0.168
AAAGGCAA	0.256
ATTCGCAA	0.157
CACTACTA	0.094
GGGGTCTA	-0.152
GTATCCCA	-0.109
ACCGTTAC	0.00116
CACTCTAA	0.0188
GGGAATTA	0.193

Sequence	PBM E-score
GACGCCTC	-0.105
CATTATAG	0.0672
GCAGTTAC	0.101
CGAATGAC	0.205
GTAAAGAA	0.224
CATTTAAG	-0.0522
AAGAAGGC	-0.0748
CGTAGCTC	-0.0764
TCGATTCA	0.104
CCTCATCA	-0.201
ATCTCTCG	-0.0856
GTTACAGA	0.0764
ATACGAAT	0.111
CCCACGCC	-0.294
CATTTGGC	0.0321
ACGCCTGA	0.0794
GTGACTTA	0.00446
AAGGTAAG	0.0175
TATGCGCA	-0.0585
ATGACTTC	0.0904
GACGGCAA	-0.0655
ACTTTCCT	-0.0799
CGCAAGCC	0.0476
TCATGGCA	-0.0755
CGTCGAGC	-0.0726

Sequence	PBM E-score
TAACCCAA	0.128
AGTAAGGA	0.215
CCCAATTC	0.164
CAATCGCG	0.0699
ACGCGACC	-0.208
GGCAGGGA	-0.0124
CAAAGCTG	0.0479
AACCGAGT	-0.106
AAGGTTAT	0.0971
AACTGTTA	0.243
CCTGCGTA	0.029
AGTAGTAC	0.252
CAATAAGC	0.0395
GGCATACC	-0.126
ATATGAGC	-0.0174
AGTGCGTG	-0.048
GCATCGCC	-0.17
ATGAGACA	0.0647
GACCGAAC	-0.0736
GGCAAAGA	-0.0677
AATGGTTC	0.187
GAGTGGCC	-0.258
ACACGTCG	-0.126
CGCGCTGA	-0.0754
AGCAGTCC	-0.182

Sequence	PBM E-score
GACATTCA	0.0222
TTACTGAA	0.075
GTACACGA	0.107
CCGTATGA	0.0121
ATAGATAC	0.185
CAAAAGGG	0.0226
TCTGCTCA	-0.113
GAAAAGAC	0.126
CGCCTTAC	-0.16
GACAAATC	0.24
CTAAGACA	0.00154
AGGCCCTG	-0.323
CCGGTTTC	-0.094
GAAAAAAA	0.37
CATTCCCC	-0.00078
ACCATGTC	-0.0544
CGGTTTTA	0.164
CCTAAGCA	-0.0388
CTGCTATA	0.137

— the supplement of paper PMC3334620
